# About 2,200 (0.71%) of roughly 310,000 compounds showed an effect of 50% or more. Effects have a minus sign here. Some of the results follow.
# Target: human ether-à-go-go-related gene (hERG) potassium channel (human, UniProt Q12809)
# Assay: primary screen, population patch clamp on CHO cells stably expressing hERG
# Sequence of human ether-à-go-go-related gene (hERG) potassium channel (Q12809 whole entry, looked up): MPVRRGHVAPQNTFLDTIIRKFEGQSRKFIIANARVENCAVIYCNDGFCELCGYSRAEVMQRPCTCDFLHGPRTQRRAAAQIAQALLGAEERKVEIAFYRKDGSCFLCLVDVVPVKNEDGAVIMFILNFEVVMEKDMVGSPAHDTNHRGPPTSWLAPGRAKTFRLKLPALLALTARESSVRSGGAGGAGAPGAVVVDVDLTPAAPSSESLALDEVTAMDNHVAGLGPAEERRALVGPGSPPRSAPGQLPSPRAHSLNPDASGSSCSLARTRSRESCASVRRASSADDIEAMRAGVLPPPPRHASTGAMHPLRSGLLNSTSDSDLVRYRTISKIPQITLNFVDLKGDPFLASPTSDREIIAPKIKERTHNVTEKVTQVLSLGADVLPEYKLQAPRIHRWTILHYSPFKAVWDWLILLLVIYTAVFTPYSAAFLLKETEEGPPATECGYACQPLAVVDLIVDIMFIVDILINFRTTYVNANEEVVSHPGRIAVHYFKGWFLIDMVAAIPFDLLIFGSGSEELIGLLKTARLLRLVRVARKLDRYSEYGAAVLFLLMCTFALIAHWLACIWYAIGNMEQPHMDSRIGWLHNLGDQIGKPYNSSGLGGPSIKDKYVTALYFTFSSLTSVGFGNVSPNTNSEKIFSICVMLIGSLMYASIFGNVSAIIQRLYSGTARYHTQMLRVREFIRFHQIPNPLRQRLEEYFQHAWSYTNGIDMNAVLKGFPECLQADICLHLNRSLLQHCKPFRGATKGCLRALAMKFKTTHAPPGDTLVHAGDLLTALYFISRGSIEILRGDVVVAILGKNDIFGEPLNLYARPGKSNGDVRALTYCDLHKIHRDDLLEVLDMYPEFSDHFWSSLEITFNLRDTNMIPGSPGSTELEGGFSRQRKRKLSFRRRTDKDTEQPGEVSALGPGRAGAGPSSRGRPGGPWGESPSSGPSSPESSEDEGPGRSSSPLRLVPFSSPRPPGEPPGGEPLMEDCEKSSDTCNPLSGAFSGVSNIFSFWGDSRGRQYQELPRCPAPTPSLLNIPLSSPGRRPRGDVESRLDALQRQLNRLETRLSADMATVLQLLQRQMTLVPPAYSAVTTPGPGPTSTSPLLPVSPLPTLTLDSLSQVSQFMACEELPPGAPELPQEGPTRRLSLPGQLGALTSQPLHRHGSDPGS
row,Compound,"hERG current change (%, negative = inhibition) at 1uM [%]"
1,O=C(Cn1c(N2CCN(C/C=C/c3ccccc3)CC2)nc2ccccc21)c1ccccc1,-32
2,COCCCn1c(C)nnc1SCc1ccc(C(C)(C)C)cc1,3.95
3,c1ccc(-c2noc(C3CCCCC3)n2)nc1,15.6
4,CC(C)OCCCNC(=S)N1CCC(C(=O)c2ccc(Cl)cc2)CC1,-3.94
5,O=C(Oc1ccc(F)cc1)c1ccc2c(=O)n3c(nc2c1)CCC3,5.84
6,Cc1c(C(C)(C)O)[nH]c2cc(C(F)(F)F)ccc12,21.4
7,Cc1cc(NCCO)nc(-n2nc(C)cc2C)n1,-7.57
8,COc1ccc(OC)c(NC(=S)N2CCN(C(=O)C3CCCO3)CC2)c1 (stereo not drawn),7.45
9,CC(C(=O)NC1CCCCC1)N1CCN(S(=O)(=O)c2cccs2)CC1 (stereo not drawn),-4.21
10,CCOC(=O)CNC(=O)CNC(=O)C(Cc1ccc(N(CCCl)CCCl)cc1)NC(C)=O (stereo not drawn),12.3
11,COC(=O)c1nn(-c2ccccc2)c(=O)cc1Oc1ccccc1,3.51
12,CC(CCc1ccccc1)NS(=O)(=O)c1ccc(Cl)c(C(=O)O)c1 (stereo not drawn),8.64
13,C(=N\Nc1nc(Nc2ccccc2)nc(N2CCCCC2)n1)/c1ccco1,8.56
14,CCc1ccc(NC(=O)Cn2nnc(C(=O)NCc3ccc4c(c3)OCO4)c2N)cc1,7.75
15,COC(=O)C1=C(C)N=C2SC(C)C(=O)N2C1c1cccs1 (stereo not drawn),13.4
16,CCC(=O)N1CCc2cc(S(=O)(=O)CCC(=O)Nc3c(C)n(C)n(-c4ccccc4)c3=O)ccc21,4.97
17,CCOc1ccc(Nc2nnc(Cc3ccc(OC)cc3)c(=O)[nH]2)cc1,13.1
18,Cc1nn2c3c(cnc2c1-c1ccccc1)C(=O)CC(c1ccco1)C3 (stereo not drawn),3.72
19,C/C(=N\NC(=O)c1ccc2c(c1)OCO2)c1ccc(C(=O)O)s1,8.36
20,O=C(O)c1ccc(C2(c3ccc(C(=O)O)cc3)OC(=O)c3ccccc32)cc1,8.81
21,O=C(NCCc1ccccc1)c1ccccc1NC(=O)C1CC=CCC1C(=O)O (stereo not drawn),20.9
22,CC1(C)Cc2c(c(-c3ccccc3)nc3sc4c(=O)[nH]c(=S)[nH]c4c23)CO1,-33
23,COc1ccccc1NC(=O)C(C)NC(c1ccccc1)c1ccccc1 (stereo not drawn),12.3

row,Compound,"hERG current change (%, negative = inhibition) at 1uM [%]"
1,CC(C)(C)NC(=O)COc1ccc(-c2ccccc2)cc1,3.29
2,NC(=O)NC(=O)COC(=O)CCSc1ccccc1,23.2
3,CC(C)C(=O)N1CCN(c2nc(-c3ccccc3)c3c(c2C#N)CCCC3)CC1,-10.1
4,Cc1cccc(C)c1OCC(=O)Nc1oc(-c2ccccc2)c(-c2ccccc2)c1C#N,14.3
5,Cc1cccnc1CNC(=O)C1CCC(=O)N(CCc2cccc(F)c2)C1 (stereo not drawn),8.69
6,CNC(=O)c1c(NC(=O)CS(=O)(=O)c2ccc(F)cc2)sc(C)c1C,4.76
7,CC(=O)CC(=O)Nc1ccc(Cl)cn1,9.79
8,O=S(=O)(NCc1csc(-c2cccnc2)n1)c1ccc(Cl)s1,-18.5
9,COc1ccc2c(c1)c(C(=O)CN1CCN(Cc3ccccc3)CC1)c(C)n2C,6.29
10,Cc1cc(C(=O)NCCCn2ccnc2)sc1-c1ccccc1,7.18
11,COc1cc(C)ccc1OCCOCCOc1c(C)cc(C)cc1Br,13.1
12,Nc1c(C(=O)c2ccccc2)oc2ccc(Br)cc12,7.38
13,CCOC(=O)C1=C(C)Nc2ccccc2N=C1NC(=O)C(CC)c1ccccc1 (stereo not drawn),5.55
14,Cc1cc(Br)c2c(c1)C(O)(N1CCCCC1C)C(=O)N2 (stereo not drawn),2.8
15,COc1ccc(OCCN(C)CC(=O)Nc2ccccc2SC)cc1,3.45
16,NS(=O)(=O)c1ccc(CNC(=O)CCCSc2ccccc2)cc1,17
17,COc1ccc(Cc2nnc(NC(=O)CSc3ccccc3)s2)cc1OC,16.4
18,O=[N+]([O-])[N-][n+]1cnn(Cc2ccc(Cl)cc2)c1,11.3
19,CCc1nc(N2CCC(C)CC2)c2oc3ccccc3c2n1.Cl,7.03
20,Cc1ccc(S(=O)(=O)N(CC(=O)Nc2ccc(C)cc2C)C(=O)N2CCN(C)CC2)cc1,7.52
21,Cn1c(=O)c2c(nc(SCc3cccnc3)n2Cc2ccc(F)cc2)n(C)c1=O,-15.5
22,COc1cc(CNc2cccc(C(=O)O)c2)cc(Br)c1OCC(=O)NC(C)(C)C,1.82
23,Cc1ccc(/C=C(\C#N)C(=O)NCC2CCCO2)o1 (stereo not drawn),10.8

row,Compound,"hERG current change (%, negative = inhibition) at 1uM [%]"
1,CCn1nc(C)c(CN2CCC(n3nccc3NC(=O)CCCc3ccccc3)CC2)c1C,-4.43
2,CCN1C(=O)c2cccc3c(NC(=O)c4ccc5c(c4)OCCO5)ccc1c23,-0.116
3,Cc1ccc(C(=O)Nc2cccc(O)c2)cc1S(=O)(=O)N1CCCCCC1,15.3
4,C/C(=N\NC(=O)CC1N=C(Cc2ccccc2)NNC1=O)c1ccccc1 (stereo not drawn),6.05
5,CC(NC(=O)Cc1ccc(S(=O)(=O)N2CCOCC2)s1)c1ccc(Cl)c(Cl)c1 (stereo not drawn),0.0138
6,CC(=O)NCCC1CCCCN1C(=O)c1cc(COc2cc(C)ccc2C)on1 (stereo not drawn),9.15
7,CCC(=O)Nc1ccc(NC(=O)c2c(C)nc3ccccn23)cc1,12.7
8,COc1ccccc1Oc1ccc(S(=O)(=O)N2CCN(C)CC2)cc1,11.9
9,Cc1cc(C)cc(-n2c(SCC(=O)Nc3cccc(S(=O)(=O)NC4=NCCCCC4)c3)nc3ccccc3c2=O)c1,7.94
10,CC(C)C(=O)Nc1cccc(-c2cn3ccsc3n2)c1,4.95
11,Cc1ccc(/C=C/C(=O)Nc2ncc(C)s2)o1,-3.75
12,CC(C)Oc1cccc(C(=O)NC(=S)Nc2ccc(N3CCN(C)CC3)cc2)c1,5.25
13,Cc1ccc(N2C(=O)CC(Sc3ncn[nH]3)C2=O)cc1 (stereo not drawn),13.7
14,O=C(COc1ccccc1F)NCC(c1ccc(F)cc1)N1CCOCC1 (stereo not drawn),2.42
15,COC(=O)C1CCN(C(=O)/C=C/c2ccc(OC)cc2)CC1,7.74
16,O=C(CSc1ncnc2sc3c(c12)CCC3)N1CCOCC1,14.3
17,Cc1ccc(C(=O)NC(=S)Nc2ccccc2C(F)(F)F)cc1C,8.01
18,CCOC(=O)C1CCCN(c2oc(-c3ccc(OC)cc3)nc2C#N)C1 (stereo not drawn),11.3
19,COc1ccc(CCn2c(NN)nc3c2c(=O)[nH]c(=O)n3C)cc1,14.4
20,COc1ccc(Oc2cc(NC(=O)c3nn(C)cc3[N+](=O)[O-])cc([N+](=O)[O-])c2)cc1,9.4
21,Cc1ccccc1NC(=S)N(C)Cc1cn(C)c2ccccc12,-1.17
22,N#Cc1cccc(NC(=O)CCn2ccnc2)c1,10.6
23,Clc1ccc(C2=NN(c3ccccc3)C(c3ccco3)C2)cc1 (stereo not drawn),14.5

row,Compound,"hERG current change (%, negative = inhibition) at 1uM [%]"
1,Cc1cccc(NC(=O)c2cc(NC(=O)C3CCCCC3C(=O)O)ccc2Cl)n1 (stereo not drawn),9.09
2,CN(C(=O)c1ccno1)c1nnc(-c2ccccn2)s1,3.84
3,Cl.Cn1cccc1CNC1CCCCC1,7.06
4,Cn1nc(C(F)(F)F)c(-c2ccc(Br)cc2)c1NC(=O)c1cccnc1,-1.83
5,Cc1ccc(S(=O)(=O)Nc2nc3ccccc3s2)cc1,8.44
6,O=C(/C=C/Nc1ccc(F)c(F)c1)c1cccs1,12.2
7,CNc1ncc(C(=O)c2ccc(F)cc2)s1,6.59
8,O=C(CNC(=O)c1ccccc1F)c1ccc(Br)cc1,10.5
9,C#CCOc1ccc(C2C3=C(CC(C)(C)CC3=O)N(CC(=O)O)C3=C2C(=O)CC(C)(C)C3)cc1,4.6
10,Cc1ccc(S(=O)(=O)CCC(=O)N(C)C2CCCCC2)cc1,19.3
11,CSc1sc2ccccc2[n+]1CCCS(=O)(=O)[O-],11.3
12,CC(C)CCNC(=O)NC(=O)COC(=O)C1CCN(S(=O)(=O)c2ccccc2F)CC1,5.94
13,CCn1c(SCC(=O)NCc2ccco2)nnc1-c1ccncc1,12.6
14,COc1ccc(/C=C/C(=O)Nc2ccccc2Cl)cc1S(=O)(=O)N1CCOCC1,7.33
15,O=C(CC1Nc2c3ccccc3nc(=S)n2C1=O)NC1CCCCC1 (stereo not drawn),6.65
16,CCCCn1nnnc1SCC(=O)c1ccccc1F,2.56
17,O=C(c1ccc(N2CCCC2=O)cc1)N1CCN(c2ccc(Cl)cc2)CC1,-8.72
18,Cc1ccc(S(=O)(=O)n2nc(C)c(S(=O)(=O)N3CCCCC3)c2C)cc1,17.6
19,Cc1cccc(C2CC(c3ccc(F)cc3)Nc3nc(N)nn32)c1 (stereo not drawn),-8.38
20,CCOc1ccc(S(=O)(=O)NC(C)C(=O)NCc2cccnc2)cc1 (stereo not drawn),9.46
21,Cc1cc(C)cc(NC(=O)Cn2nnc(C(=O)NCc3ccco3)c2N)c1,12.3
